Data reported in the supplement of paper PMC4604168 (melanoma cell lines).
Some of the results follow. Many values rest on one well or one pass, so single values are uncertain.

The compounds below were run on UACC62 (assay: cell count relative to DMSO control; melanoma cells; higher = more viable cells). Settings: library dose: standard library concentration; 72 h.
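Note: cells treated in 1,536-well plates, then fixed and DAPI-stained, with nuclei counted from automated high-throughput microscope images.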

Structure (SMILES)	cell count [%]
C=C(c1ccc(C(=O)O)cc1)c1cc2c(cc1C)C(C)(C)CCC2(C)C [Bexarotene] + CN(C)S(=O)(=O)c1ccc2c(c1)/C(=C/c1cc3c([nH]1)CCCC3)C(=O)N2 [SU6656] (first compound 10 µM, partner dose 2 µM)	63.9
CCCS(=O)(=O)Nc1ccc(F)c(C(=O)c2c[nH]c3ncc(Cl)cc23)c1F + O=C(O)c1ccc(-c2c[nH]c3ncc(-c4ccccc4)cc23)cc1C1CCCC1 [GSK650394] (first compound 0.4 µM, partner dose 0.8 µM)	64.5
CS(=O)(=O)c1ccc(C(=O)Nc2ccc(Cl)c(-c3ccccn3)c2)c(Cl)c1 [vismodegib] + CCCS(=O)(=O)Nc1ccc(F)c(C(=O)c2c[nH]c3ncc(Cl)cc23)c1F [PLX4720] (first compound 5 µM, partner dose 0.4 µM)	50.5

These compounds were tested on WM115 in the same assay as above. Settings: library dose: standard library concentration; 72 h.

Structure (SMILES)	cell count [%]
CN(c1ncccc1CNc1nc(Nc2ccc3c(c2)CC(=O)N3)ncc1C(F)(F)F)S(C)(=O)=O + Cc1ccc(NC(=O)c2cccc(N(C)C)c2)cc1NC(=O)c1ccc(O)cc1 [ZM336372] (first compound 0.4 µM, partner dose 10 µM)	69.6
C=C(c1ccc(C(=O)O)cc1)c1cc2c(cc1C)C(C)(C)CCC2(C)C [Bexarotene] + Nc1ccn([C@@H]2O[C@H](CO)[C@@H](O)C2(F)F)c(=O)n1 [gemcitabine] (first compound 10 µM, partner dose 0.002 µM)	62.5
CS(=O)(=O)c1ccc(C(=O)Nc2ccc(Cl)c(-c3ccccn3)c2)c(Cl)c1 [vismodegib] + CS(=O)(=O)CCNCc1ccc(-c2ccc3ncnc(Nc4ccc(OCc5cccc(F)c5)c(Cl)c4)c3c2)o1 [lapatinib] (first compound 5 µM, partner dose 4 µM)	89.4
NC1(c2ccc(-c3nc4ccn5c(=O)[nH]nc5c4cc3-c3ccccc3)cc2)CCC1 + Cc1cc(N2CCOCC2)cc2[nH]c(-c3c(NC[C@@H](O)c4cccc(Cl)c4)cc[nH]c3=O)nc12 [BMS536924] (first compound 2 µM, partner dose 1 µM)	56.6
C=C(c1ccc(C(=O)O)cc1)c1cc2c(cc1C)C(C)(C)CCC2(C)C [Bexarotene] + Nc1ncn([C@H]2C[C@H](O)[C@@H](CO)O2)c(=O)n1 [decitabine] (first compound 10 µM, partner dose 0.5 µM)	81.6
NC1(c2ccc(-c3nc4ccn5c(=O)[nH]nc5c4cc3-c3ccccc3)cc2)CCC1 + Cn1c(Nc2ccc(C(F)(F)F)cc2)nc2cc(Oc3ccnc(-c4ncc(C(F)(F)F)[nH]4)c3)ccc21 [CHIR265] (first compound 2 µM, partner dose 0.4 µM)	20.8
CN(c1ncccc1CNc1nc(Nc2ccc3c(c2)CC(=O)N3)ncc1C(F)(F)F)S(C)(=O)=O + C=CCn1c(=O)c2cnc(Nc3ccc(N4CCN(C)CC4)cc3)nc2n1-c1cccc(C(C)(C)O)n1 [MK1775] (first compound 0.4 µM, partner dose 0.1 µM)	66.5
CCCS(=O)(=O)Nc1ccc(F)c(C(=O)c2c[nH]c3ncc(Cl)cc23)c1F + COc1cc(Nc2ncc(F)c(Nc3ccc4c(n3)NC(=O)C(C)(C)O4)n2)cc(OC)c1OC [Tamatinib] (first compound 0.4 µM, partner dose 2 µM)	55.9
NC1(c2ccc(-c3nc4ccn5c(=O)[nH]nc5c4cc3-c3ccccc3)cc2)CCC1 + CN(C)S(=O)(=O)c1ccc2c(c1)/C(=C/c1cc3c([nH]1)CCCC3)C(=O)N2 [SU6656] (first compound 2 µM, partner dose 2 µM)	43.9
CS(=O)(=O)c1ccc(C(=O)Nc2ccc(Cl)c(-c3ccccn3)c2)c(Cl)c1 [vismodegib] + NC(=O)Nc1cc(-c2cccc(F)c2)sc1C(=O)N[C@H]1CCCNC1 [AZD7762] (first compound 5 µM, partner dose 0.1 µM)	70.8
CCCS(=O)(=O)Nc1ccc(F)c(C(=O)c2c[nH]c3ncc(Cl)cc23)c1F + OCCn1cc(-c2cnc3nnn(Cc4ccc5ncccc5c4)c3n2)cn1 [PF04217903] (first compound 0.4 µM, partner dose 5 µM)	68.8
CS(=O)(=O)c1ccc(C(=O)Nc2ccc(Cl)c(-c3ccccn3)c2)c(Cl)c1 [vismodegib] + CC(=O)c1c(C)c2cnc(Nc3ccc(N4CCNCC4)cn3)nc2n(C2CCCC2)c1=O [palbociclib] (first compound 5 µM, partner dose 0.2 µM)	70.3
CN(c1ncccc1CNc1nc(Nc2ccc3c(c2)CC(=O)N3)ncc1C(F)(F)F)S(C)(=O)=O + CS(=O)(=O)CCNCc1ccc(-c2ccc3ncnc(Nc4ccc(OCc5cccc(F)c5)c(Cl)c4)c3c2)o1 [lapatinib] (first compound 0.4 µM, partner dose 4 µM)	77.1
CN(c1ncccc1CNc1nc(Nc2ccc3c(c2)CC(=O)N3)ncc1C(F)(F)F)S(C)(=O)=O + Cn1c(Nc2ccc(C(F)(F)F)cc2)nc2cc(Oc3ccnc(-c4ncc(C(F)(F)F)[nH]4)c3)ccc21 [CHIR265] (first compound 0.4 µM, partner dose 0.4 µM)	33.3
CS(=O)(=O)c1ccc(C(=O)Nc2ccc(Cl)c(-c3ccccn3)c2)c(Cl)c1 [vismodegib] + Cn1c(Nc2ccc(C(F)(F)F)cc2)nc2cc(Oc3ccnc(-c4ncc(C(F)(F)F)[nH]4)c3)ccc21 [CHIR265] (first compound 5 µM, partner dose 0.4 µM)	48.2
CS(=O)(=O)c1ccc(C(=O)Nc2ccc(Cl)c(-c3ccccn3)c2)c(Cl)c1 [vismodegib] + O=C(CCCCCCC(=O)Nc1ccccc1)NO [vorinostat] (first compound 5 µM, partner dose 0.4 µM)	61.3
CS(=O)(=O)c1ccc(C(=O)Nc2ccc(Cl)c(-c3ccccn3)c2)c(Cl)c1 [vismodegib] + Cc1cc(Nc2cc(N3CCN(C)CC3)nc(/C=C/c3ccccc3)n2)n[nH]1 [ENMD2076] (first compound 5 µM, partner dose 0.2 µM)	72.9
CS(=O)(=O)c1ccc(C(=O)Nc2ccc(Cl)c(-c3ccccn3)c2)c(Cl)c1 [vismodegib] + OCc1c[nH]c2ccccc12 [Indole-3-carbinol] (first compound 5 µM, partner dose 4 µM)	107
CN(c1ncccc1CNc1nc(Nc2ccc3c(c2)CC(=O)N3)ncc1C(F)(F)F)S(C)(=O)=O + C[C@]1(c2nc3c(C(N)=O)cccc3[nH]2)CCCN1 [Veliparib] (first compound 0.4 µM, partner dose 7 µM)	59.3
C=C(c1ccc(C(=O)O)cc1)c1cc2c(cc1C)C(C)(C)CCC2(C)C [Bexarotene] + Cc1ccc(NC(=O)c2cccc(N(C)C)c2)cc1NC(=O)c1ccc(O)cc1 [ZM336372] (first compound 10 µM, partner dose 10 µM)	98.4
CCCS(=O)(=O)Nc1ccc(F)c(C(=O)c2c[nH]c3ncc(Cl)cc23)c1F + CC1(C)NC(=O)N(c2ccc([N+](=O)[O-])c(C(F)(F)F)c2)C1=O [nilutamide] (first compound 0.4 µM, partner dose 5 µM)	66.3
CS(=O)(=O)c1ccc(C(=O)Nc2ccc(Cl)c(-c3ccccn3)c2)c(Cl)c1 [vismodegib] + C[C@@H]1CCN(C(=O)CC#N)C[C@@H]1N(C)c1ncnc2[nH]ccc12 [CP690550] (first compound 5 µM, partner dose 5 µM)	82.3
NC1(c2ccc(-c3nc4ccn5c(=O)[nH]nc5c4cc3-c3ccccc3)cc2)CCC1 + CN(NC(=O)CC(=O)NN(C)C(=S)c1ccccc1)C(=S)c1ccccc1 [STA4783] (first compound 2 µM, partner dose 0.03 µM)	32.9
CS(=O)(=O)c1ccc(C(=O)Nc2ccc(Cl)c(-c3ccccn3)c2)c(Cl)c1 [vismodegib] + Nc1ccn([C@@H]2O[C@H](CO)[C@@H](O)C2(F)F)c(=O)n1 [gemcitabine] (first compound 5 µM, partner dose 0.002 µM)	102
CCCS(=O)(=O)Nc1ccc(F)c(C(=O)c2c[nH]c3ncc(Cl)cc23)c1F + O=C(CCCCCCC(=O)Nc1ccccc1)NO [vorinostat] (first compound 0.4 µM, partner dose 0.4 µM)	99.2
CN(c1ncccc1CNc1nc(Nc2ccc3c(c2)CC(=O)N3)ncc1C(F)(F)F)S(C)(=O)=O + Cn1nnc2c(C(N)=O)ncn2c1=O [temozolomide] (first compound 0.4 µM, partner dose 10 µM)	74.5
CCCS(=O)(=O)Nc1ccc(F)c(C(=O)c2c[nH]c3ncc(Cl)cc23)c1F + COc1ccc(Cl)c(Nc2nc3ccccc3nc2NS(=O)(=O)c2cccc(NC(=O)C(C)(C)N)c2)c1 [XL147] (first compound 0.4 µM, partner dose 4 µM)	64.8
NC1(c2ccc(-c3nc4ccn5c(=O)[nH]nc5c4cc3-c3ccccc3)cc2)CCC1 + Cn1c(=O)n(-c2ccc(C(C)(C)C#N)cc2)c2c3cc(-c4cnc5ccccc5c4)ccc3ncc21 [NVP-BEZ235] (first compound 2 µM, partner dose 0.02 µM)	44.9
NC1(c2ccc(-c3nc4ccn5c(=O)[nH]nc5c4cc3-c3ccccc3)cc2)CCC1 + Cc1nc(Nc2ncc(C(=O)Nc3c(C)cccc3Cl)s2)cc(N2CCN(CCO)CC2)n1 [dasatanib] (first compound 2 µM, partner dose 0.02 µM)	38.9
